# Experimental data published in PubChem BioAssay AID463173 (ICCB-Longwood Screening Facility, Harvard Medical School, 2010).
# Among all 52,000 compounds or so, about 4,300 (8.3%) were called active. No stated cut-off is given here; in the data, active means survival mostly below about 52% (no sharp cut-off); inactive means mostly above about 56%. Some of the results follow.
# Tested on: DeltatarO mutant
# Assay: S. aureus survival, RN4220 and DeltatarO strains – OD600, teichoic acid synthesis inhibitors, primary screen (AID 463173)
# Conditions: S. aureus RN4220 wild type/DeltatarO growth, OD600, 18 h, stronger effect = lower value, screened at 18.75 µg/mL (by protocol)
row,SMILES,survival
1,COc1cc(-c2cc(OC)c3c(C)oc(C)c3c(=O)c2)ccc1OC(=O)c1cccc(C)c1,inactive: 91%
2,Cc1nn(S(=O)(=O)c2ccc(F)cc2)c(C)c1S(=O)(=O)N1CCCCCC1,inactive: 64%
3,CC(C)Nc1nc(Cl)nc(NCCO)n1,inactive: 110%
4,Cc1ccc(CNC(=O)c2ccc3c(c2)c(C)c(C)n3Cc2ccc(Cl)cc2)o1,inactive: 75%
5,Cc1ccc(/C=C/C(=O)Nc2ccc3nc(N4CCC(C)CC4)cc(C)c3c2)cc1,inactive: 122%
6,CCOc1ccc(C(=O)Nc2ccc3nc(N(CC)CC)cc(C)c3c2)cc1,inactive: 70%
7,Cc1cc(N2CCC(C(=O)Nc3ccc(F)cc3F)CC2)n2nc(C)c(-c3ccc(Cl)cc3)c2n1,inactive: 86%
8,Cn1c(=O)oc2cc(S(=O)(=O)NC(Cc3ccccc3)C(=O)Nc3ccc(F)c(Cl)c3)ccc21 (stereo unspecified),inactive: 83%
9,CCOC(=O)C1CCN(Cc2cn3c(-c4ccc(OC)cc4)nnc3s2)CC1,inactive: 66%
10,COc1cccc(NS(=O)(=O)c2ccc3[nH]cc(C(=O)NC(C)c4ccccc4)c(=O)c3c2)c1 (stereo unspecified),active: 37%
11,Cc1ccccc1CN1CCCN(CC(=O)Nc2ccc(F)cc2)S1(=O)=O,inactive: 93%
12,Cc1cccc(NC(=O)c2cn(-c3ccccc3)nc2-c2ccccc2)c1C,inactive: 97%
13,CCOC(=O)c1c(C)oc2nc(C)nc(NCCc3ccc(Cl)cc3)c12,inactive: 99%
14,Cc1ccc(NC(=O)Cn2c(=O)n(Cc3ccc4c(c3)OCO4)c(=O)c3oc4ccccc4c32)cc1C,inactive: 53%
15,CC(C)c1ccc(NC(=O)Cn2nnc(C(=O)NCc3ccc4c(c3)OCO4)c2N)cc1,inactive: 75%
16,CCc1cccc(NC(=O)c2ccc3c(c2)N(Cc2cccc(Cl)c2)C(=O)c2ccccc2S3=O)c1 (stereo unspecified),inactive: 78%
17,CCOC(=O)c1c(-c2ccc(C)cc2)csc1NC(=O)c1cc(-c2ccc(OC)cc2)on1,inactive: 49%
18,COc1ccc(-c2cc(C(F)(F)F)nc(SCCC(=O)N3CCN(C)CC3)n2)cc1,inactive: 114%
19,Cc1cccc(N(C)C(=O)CCS(=O)(=O)c2ccc3c(c2)n(C)c(=O)c(=O)n3C)c1,inactive: 81%

row,SMILES,survival
1,CCN(c1cccc(C)c1)S(=O)(=O)c1cc2c(cc1C)n(C)c(=O)c(=O)n2C,inactive: 85%
2,COc1ccc(OCCSc2nc(C)cc(=O)[nH]2)cc1,inactive: 81%
3,CCOc1cccc2sc(NC(=O)c3ccc(S(=O)(=O)N4CCCCC4C)cc3)nc12 (stereo unspecified),active: 37%
4,O=C(c1cc(-c2ccc(Cl)cc2)n[nH]1)N1CCN(S(=O)(=O)c2ccc(Br)s2)CC1,inactive: 86%
5,CCOC(=O)c1c(C)[nH]c(C)c1S(=O)(=O)N1CCN(c2cc(Cl)ccc2C)CC1,inactive: 108%
6,Cc1nnc(NC(=O)c2nc(SC(C)C)ncc2Cl)s1,inactive: 72%
7,CCOc1ccc(NC(=O)c2sc(-n3nc(C)c(Cc4ccc(Cl)cc4)c3C)nc2C)cc1,inactive: 73%
8,Clc1ccccc1Cn1c(-c2cccs2)nc2ccccc21,active: 11%
9,CCOC(=O)C1Cc2c([nH]c3ccccc23)CN1 (stereo unspecified),inactive: 86%
10,CCN(CC)CCCNC(=O)c1ccc2c(c1)sc1nc(-c3ccc(C)cc3)cn12,active: 24%
11,CCCCOc1ccc(C(=O)Nc2cc(-c3cn4cccnc4n3)ccc2OC)cc1,inactive: 84%
12,COc1ccc(CCNS(=O)(=O)c2c(C)nc3sc(C)cn3c2=O)cc1OC,inactive: 96%
13,Cc1cc(Nc2cccc(C(=O)O)c2)n2nc(C)nc2n1,inactive: 115%
14,Cc1cccc(NC(=O)CN(C)S(=O)(=O)c2ccc3c(c2)c(=O)n(C)c(=O)n3C)c1C,inactive: 135%
15,C=Cn1cccc1C(=O)O,inactive: 83%
16,COc1ccc(-c2nc3ccccc3o2)cc1NC(=O)c1cccnc1,active: 45%
17,COc1ccc(CCNC(=O)c2ccc3c(c2)N=C(C)c2ccccc2S3)cc1OC,inactive: 71%
18,CCCn1c2ccccc2c2cnn(CC(=O)NCCN(CC)CC)c(=O)c21,inactive: 54%
19,Cc1c(CNC2CCCCCC2)c(C(=O)O)c(C)n1Cc1cccc(Cl)c1,inactive: 123%

row,SMILES,survival
1,Cc1cccc(CNC(=O)Cn2nc(C)c3nn(-c4ccc(Cl)cc4)c(C)c3c2=O)c1,inactive: 55%
2,O=C(CSc1nc(Nc2ccccc2)c2ccccc2n1)c1ccc(Cl)cc1,inactive: 84%
3,Cc1ccccc1Nc1c(-c2c[nH]c3ccccc23)nc2ccc(Cl)cn12,inactive: 115%
4,Cc1cc(C)cc(NC(=O)NCc2c(-n3cccc3)sc3c2CCCC3)c1,inactive: 101%
5,Cc1cccc(OC(=O)CSc2nnc(-c3cccs3)o2)c1C,inactive: 71%
6,Cc1ccc(-n2ncc(C(=O)N3CCN(c4ccccc4F)CC3)c2C2CCN(C(=O)OC(C)(C)C)CC2)cc1C,inactive: 71%
7,CSc1ncc(Cl)c(C(=O)Nc2c(C(=O)c3ccc(Cl)cc3)oc3ccccc23)n1,inactive: 71%
8,CCOC(=O)c1c(S(=O)(=O)N2CCCC(C(=O)Nc3cccc(CC)c3)C2)c(C)n(CC)c1C (stereo unspecified),inactive: 102%
9,Cc1c(NC(=O)Cc2ccc(Cl)cc2)cccc1-c1nc2cccnc2s1,inactive: 114%
10,CCOc1ccc(CNC(=O)c2ccc(NC(=O)N3CCCCc4ccccc43)cc2)cc1,inactive: 89%
11,CCOC(=O)c1c(C)[nH]c(C)c1S(=O)(=O)NCC(=O)Nc1cccc(Cl)c1,inactive: 87%
12,O=C(NCCc1cccs1)c1ccc(Cn2c(SCc3cccc(F)c3)nc3cccnc32)cc1,inactive: 79%
13,Fc1cccc(CN2CCc3nc(Nc4ccc5c(c4)OCCO5)ncc3C2)c1F,inactive: 91%
14,Cc1ccccc1S(=O)Cc1ccc(C(=O)NCc2ccccc2Cl)o1 (stereo unspecified),inactive: 73%
15,COc1ccc(-c2csc3ncnc(Nc4ccccc4)c23)cc1,inactive: 107%
16,Cc1ccc(CSC2=NC(C)(C)Nc3ccccc32)c(C)c1,inactive: 98%
17,O=C(Cn1cc(C(=O)c2ccco2)c2ccccc21)Nc1ccccc1C(F)(F)F,inactive: 74%
18,COc1ccc(-c2noc(N3CCC(C(=O)N4CCN(c5cccc(OC)c5)CC4)CC3)n2)cc1,inactive: 84%
